Source: PubChem BioAssay AID1479 (National Center for Advancing Translational Sciences (NCATS), 2009)
Screen size: about 280,000 compounds; about 820 (0.29%) were called active. Inconclusive means that the source gave no clear call. Such entries were picked first, then a sample of the others. The call rests on the fitted dose curve; in most records, active means well fitted curve in either direction with a large enough effect; inconclusive means small, poorly fitted or top-dose-only effect; inactive means flat fitted curve, though single readings scatter. Potencies of inconclusive entries are left out as doubtful fits.

assay: Total Fluorescence Counterscreen for Inhibitors of the Interaction of Thyroid Hormone Receptor and Steroid Receptor Coregulator 2; details: TRb/SRC2 Texas Red total fluorescence interference; series mostly up to 106 µM; fluorescence change, negative = quenching: at the top concentration
Text: NIH Molecular Libraries Probe Production Network [MLPCN]
NIH Chemical Genomics Center [NCGC]
Assay Provider: R. Kip Guy, St. Jude Children's Research Hospital
Thyroid receptor (TR) regulates many homeostatic processes including basal metabolism, cardiovascular function, body weight, and lipid trafficking. TR modulators are potential therapeutics for obesity and hyperlipidemias but current thyroid analogs have undesirable side effects, particularly cardiac stimulation. To identify inhibitors that specifically prevent the interaction of TR with the steroid receptor […] 2 (SRC2), a fluorescence polarization assay was screened. This assay detects interaction of the ligand-binding domain of human TRb with a Texas Red labeled SRC2 peptide, corresponding to a 20 amino acid region of the nuclear receptor interaction domain (Arnold et al., 2006). Total fluorescence (555 nm excitation and 632 nm emission) was measured to identify potential fluorescent and light absorbing compounds. Such compounds may be artifacts that interfere with the fluorescence polarization assay.
Arnold, L. A.; Estebanez-Perpina, E.; Togashi, M.; Shelat, A.; Ocasio, C. A.; McReynolds, A. C.; Nguyen, P.; Baxter, J. D.; Fletterick, R. J.; Webb, P.; Guy, R. K. A high-throughput screening method to identify small molecule inhibitors of thyroid hormone receptor coactivator binding. Sci STKE 2006, p 13.
NCGC Assay Protocol Summary:
For screening, 5 uL/well 0.6 uM TRb and 20 nM SRC2 Texas Red in protein buffer (20mM Tris hydrochloride, 100mM NaCl, 10% glycerol, 1mM EDTA, 0.01% NP-40, 1mM DTT, 1uM T3 and 5% DMSO) was dispensed into black solid 1536-well plates (Grenier) using a solenoid-based dispenser. Following transfer of 23 nL compound or DMSO vehicle by a pin tool, the plates were centrifuged 15 s at 1000 RPM and incubated 5 hr at ambient temperature. The plates were read by an Envision (Perkin Elmer) to detect fluorescence polarization of SRC2 Texas Red (555 nm excitation and 632 nm emission). Data were normalized to unbound (all components except TRb) and bound SRC2 Texas Red controls. Total fluorescence (TF) was calculated as follows: TF = S + 2P where S and P are fluorescence readings in the parallel and perpendicular channels, respectively.
Keywords: NIH Roadmap, MLPCN, MLI, MLSMR, qHTS, NCGC, qHTS, thyroid hormone receptor, steroid receptor coactivator, fluorescence polarization
On the % scale 0 is the no-effect control and ±100 the full control effect; potency means the concentration at half of the fitted maximal effect; tags describe the fitted curve by direction and shape or compound fluorescence and quenching.

Row | Compound | Potency | fluorescence change, negative = quenching
1 | CN(C)c1ccc(N/C=C/C(=O)C(F)(F)F)cc1 | active: 44.7 µM [fluorescent] | 
2 | COc1cccc(-c2cc(C(F)(F)F)n3ncc(C(=O)OC(C)C)c3n2)c1 | inconclusive [falling, partial curve, poor fit] | 
3 | Cc1c(C(=O)N/N=C/c2ccccc2)[nH]c2ccc(Cl)cc12 | inconclusive [falling, partial curve, poor fit] | 
4 | CCN(CC)C(=O)C1=C(C)Nc2nc3ccccc3n2C1c1cccc(OC)c1 (stereo not drawn) | inconclusive [falling, partial curve, poor fit] | 
5 | CC(C)CN1C(=O)c2ccc(NC(=O)c3cccs3)cc2C1=O |  | inactive: -1.78%
6 | CCOCCCN(Cc1ccco1)C(=O)c1cc2c(s1)-c1c(C)cccc1OC2 | inconclusive [falling, full curve, poor fit] | 
7 | COc1ccc(CNC(=O)c2c(O)nc3c(C)cccn3c2=O)cc1 | inconclusive [quencher, full curve] | 
8 | COc1ccc(C2CC(=O)c3cc(-c4nc(-c5cccc([N+](=O)[O-])c5)cs4)c(=O)n(-c4ccccc4N)c3C2)cc1 (stereo not drawn) | inconclusive [falling, partial curve, poor fit] | 
9 | Cc1c(Cl)cccc1NC(=O)CNC(=O)c1ccc(F)cc1 | inconclusive [falling, full curve, poor fit] | 
10 | Cc1cc(C)c(OCC(=O)N(Cc2ccc(N(C)C)cc2)Cc2ccco2)c(C)c1 | inconclusive [falling, partial curve, poor fit] | 
11 | CCc1cccc(C)c1NC(=S)NCC(c1cccnc1)N1CCOCC1 (stereo not drawn) | inconclusive [quencher, partial curve] | 
12 | Cc1ccc(NC(=S)NC2CCN(Cc3ccccc3)CC2)cc1 |  | inactive: 0.144%
13 | O=S1(=O)c2ccccc2N(Cc2ccccc2F)c2ccccc21 | inconclusive [quencher, full curve] | 
14 | O=[N+]([O-])c1cc(Cl)cc(/C=N/NC(=S)Nc2cc(S(=O)(=O)N3CCOCC3)ccc2Cl)c1O | inconclusive [quencher, partial curve] | 
15 | COc1cc(S(=O)(=O)NCCc2c(C)[nH]c3ccc(C)cc23)ccc1Br |  | inactive: -1.61%
16 | CCOc1ccc(CCNC(=O)c2cnc3c(-c4ccc(F)cc4)c(C)nn3c2C)cc1 | inconclusive [quencher, partial curve] | 
17 | CCN(CC)c1ccc(/C=c2\sc3nc4ccccc4n3c2=O)c(O)c1 | active: 50.1 µM [fluorescent] | 
18 | CC1CCCCN1c1cc2c(cc1F)c(=O)c(S(=O)(=O)c1ccccc1)cn2Cc1ccccc1 (stereo not drawn) | inconclusive [falling, partial curve, poor fit] | 
